Data as given in paper PMC4336329 (PLoS ONE, 2015).
Among all 310,000 compounds or so, about 2,200 (0.71%) showed an effect of 50% or more. Effects have a minus sign here. The list shows a part of the results.

Molecular target: human ether-à-go-go-related gene (hERG) potassium channel (human, UniProt Q12809)
Assay: primary screen, population patch clamp on CHO cells stably expressing hERG

Chain of human ether-à-go-go-related gene (hERG) potassium channel (Q12809 whole entry, looked up): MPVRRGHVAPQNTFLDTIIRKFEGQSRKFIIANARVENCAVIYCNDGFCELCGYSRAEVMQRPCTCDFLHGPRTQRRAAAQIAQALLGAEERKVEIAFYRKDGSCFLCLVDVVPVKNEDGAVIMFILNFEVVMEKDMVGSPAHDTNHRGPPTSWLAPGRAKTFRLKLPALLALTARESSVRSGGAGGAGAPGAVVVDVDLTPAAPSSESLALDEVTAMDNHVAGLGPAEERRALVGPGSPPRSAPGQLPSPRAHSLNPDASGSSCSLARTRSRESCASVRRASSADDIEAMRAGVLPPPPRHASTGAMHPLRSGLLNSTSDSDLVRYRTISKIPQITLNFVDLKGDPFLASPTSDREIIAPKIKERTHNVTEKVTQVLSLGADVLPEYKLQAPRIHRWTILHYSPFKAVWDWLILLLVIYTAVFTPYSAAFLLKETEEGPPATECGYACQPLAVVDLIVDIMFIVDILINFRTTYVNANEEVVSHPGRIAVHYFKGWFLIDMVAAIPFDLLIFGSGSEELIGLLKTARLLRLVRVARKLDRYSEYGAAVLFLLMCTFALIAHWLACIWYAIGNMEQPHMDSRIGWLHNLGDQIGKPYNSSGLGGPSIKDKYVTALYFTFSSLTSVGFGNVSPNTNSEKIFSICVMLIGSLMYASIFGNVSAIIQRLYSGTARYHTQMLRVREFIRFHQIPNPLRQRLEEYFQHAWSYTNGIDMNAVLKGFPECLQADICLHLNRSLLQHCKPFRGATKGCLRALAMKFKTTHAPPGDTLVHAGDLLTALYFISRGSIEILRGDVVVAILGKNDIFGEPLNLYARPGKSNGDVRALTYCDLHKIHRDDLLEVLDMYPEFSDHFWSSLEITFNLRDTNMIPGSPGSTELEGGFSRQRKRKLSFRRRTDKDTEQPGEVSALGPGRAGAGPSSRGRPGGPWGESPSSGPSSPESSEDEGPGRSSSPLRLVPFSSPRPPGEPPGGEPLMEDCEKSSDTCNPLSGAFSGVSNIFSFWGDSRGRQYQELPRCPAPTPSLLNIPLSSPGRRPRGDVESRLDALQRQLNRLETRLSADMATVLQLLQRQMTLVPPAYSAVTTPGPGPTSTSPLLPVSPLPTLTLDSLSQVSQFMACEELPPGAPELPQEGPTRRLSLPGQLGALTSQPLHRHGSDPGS

SMILES	hERG current change (%, negative = inhibition) at 1uM
CCCCn1c(N)c(N(CC(C)C)C(=O)C2CCN(S(=O)(=O)c3ccc(C)cc3)CC2)c(=O)[nH]c1=O	11.2%
C[C@@H](C(=O)NCCc1c[nH]c2ccccc12)[C@@H]1C[C@@]1(C)[C@@H](NC(=O)OCc1ccccc1)c1ccccc1	13.1%
CCOc1ccc(CNC(=O)C2CCN(S(=O)(=O)CC)CC2)cc1OC	9.45%
COc1cc([N+](=O)[O-])cc2sc(NC(=O)C(C)(C)C)nc12	9.58%
COc1cccc(CNc2ccc3c(c2)ncn3C)c1OC	18.4%
CCOc1cccc(=[NH+]C2CCCCC2)c2c(C)n(C)c(C)c12.[O-][Cl+3]([O-])([O-])[O-]	-42.3%
COc1ccc(/C=C2\CCn3c2nc2cc(C(=O)O)ccc2c3=O)cc1OC	8.01%
CN(CCC1CCOCC1)C(=O)CC1C(=O)NCCN1Cc1ccccc1F (centres unmarked)	3.78%
C=CCn1c(SCC(=O)Nc2cc(C)c(Cl)cc2OC)nnc1-c1ccco1	-7.62%
CC(C)c1cc(C(=O)NNC(=S)NC2CCCCC2)cs1	2.56%
CCc1ccc(-c2nc(CN3CCCC(C(=O)NCCc4ccc(OC)c(OC)c4)C3)c(C)o2)cc1 (centres unmarked)	-3.23%
CCn1c(CNc2ccc(C)cc2)nnc1SCC(N)=O	20%
Cc1ccc(-n2ncc3c2CC(C)(C)CC3NC(=O)CCc2cnn(C)c2)cc1 (centres unmarked)	-16.5%
O=C(O)/C=C/C(=O)NNC(=O)c1cc(-c2ccccc2)n[nH]1	14.4%
CON/C=C(\C=Nc1ccc(F)cc1)c1ncc(C(F)(F)F)cc1Cl	9.23%
COC(=O)c1cn(CC(=O)N2C(C)CCCC2C)c2ccccc12 (centres unmarked)	13.9%
O=C(CSc1nc2[nH]ncc2c(=O)[nH]1)NCc1ccccc1Cl	7.42%
Cc1ccc(-n2c(O)c(C=NC3CCS(=O)(=O)C3)c3ccccc3c2=O)cc1 (centres unmarked)	9.2%
C(=N\NC1=NCCCCC1)/c1c[nH]c2ccccc12.Cl	11.4%
CC(=O)N(C)c1ccc(NS(=O)(=O)c2cccc3nsnc23)cc1	14.7%
CCOC(=O)COc1ccc2ccccc2c1/C=C/[N+](=O)[O-]	8.95%
O=C(NCC(c1cccnc1)N1CCN(c2ccc(F)cc2)CC1)c1ccccc1 (centres unmarked)	3.43%

SMILES	hERG current change (%, negative = inhibition) at 1uM
Cc1ccc(OCC(=O)Nc2ccc(NC(=O)c3ccccc3)cc2)cc1C	17.2%
COc1ccc(NC(=O)N2CCC(Cc3ccccc3)CC2)cc1	6.74%
O=c1[nH]c(=S)n(-c2ccccc2)c(O)c1C=NCCN1CCNCC1	14.5%
O=C(CSc1nnnn1-c1ccc(F)cc1)NCc1cccs1	11.9%
CC(=O)N1CCN(c2ccc(NC(=O)c3ccc(OCc4ccccc4)cc3)cc2)CC1	-5.28%
CCC1(C)Cc2nc3sc(C(=O)O)c(N)c3cc2CO1 (centres unmarked)	7.64%
CCOC(=O)c1cnc2c(Cl)cc(Cl)cc2c1NCCOCCO	2.33%
CSC[C@H](NC(=O)COc1cc2c(c3oc(=O)cc(C)c13)CCC(C)(C)O2)C(=O)O	14.3%
Cc1ccc(C(C)C)c(OCCN2C(=O)NC(C)(C)C2=O)c1	1.55%
COc1ccc(Cl)cc1NC(=O)Cn1c(C)csc1=O	10.2%
COc1cccc(/C=N/n2c(=S)n(C)c3cc(C)c(C)cc32)c1OC	4%
Cc1ccc(NC(=O)N2CCCC2C(=O)NCC2CCCO2)cc1 (centres unmarked)	9.17%
O=C(Cn1c(C(=O)N2CCN(C3CCCC3)CC2)cc2sccc21)c1ccccc1	-51%
NC(=O)N/N=C/c1c(F)cccc1F	7.88%
CCOC(=O)C1CCN(C(=O)/C=C/c2cccs2)CC1	6.2%
COc1ccc(NC(=O)C2CCCN2C(=O)NC2CCCCC2)c(OC)c1 (centres unmarked)	12.7%
O=C(c1ccc(Br)o1)N(Cc1ccccc1)c1ccccn1	11.7%
O=C(CN(Cc1ccc(F)cc1)C(=O)CCC(=O)Nc1nccs1)NCc1ccccc1	-7.72%
CCC(Sc1nc(C)cc(C)n1)C(=O)Nc1nccs1 (centres unmarked)	14.3%
CCc1noc(C)c1C(=O)N1CCCC(C(=O)c2cc(F)ccc2F)C1 (centres unmarked)	-9.07%
O=C(COc1cc(Cl)c(Cl)cc1Cl)Nc1ccc([N+](=O)[O-])cc1Cl	13%
CC/C(=C\C=C\[C@@H]1C=C[C@@H]2CCC[C@H]2[C@@H]1C(=O)c1ccc[nH]1)[C@@H]1O[C@@H]([C@@H](C)C(=O)[O-])CC[C@@H]1C.[Na+]	6.55%

SMILES	hERG current change (%, negative = inhibition) at 1uM
O=C(c1ccco1)N1CCN(Cc2ccc(Cl)cc2)CC1	7.26%
O=C(NNC(=O)c1ccccc1O)c1ccc(Cl)c(S(=O)(=O)N2CCCCC2)c1	2%
CN(C)S(=O)(=O)n1cnc([C@@H]2[C@H]3C(=O)OC[C@@H]3C[C@@]23N=CN(Cc2ccccc2)C3=O)c1	1.09%
COc1ccc(C(=O)NCc2nnc(SCC(=O)N3CCCCC3)o2)cc1OC	6.85%
CC(=O)Nc1ccc(S(=O)(=O)c2ccc([N+](=O)[O-])cc2)cc1	-1.5%
CCOC(=O)CCc1c(C)nc2cc(-c3ccc(Cl)cc3)[nH]n2c1=O	5.85%
Cc1nnc(NC(=O)CSc2ncnc3c2cnn3-c2ccccc2C)s1	4.81%
COCCn1nnnc1C(c1ccc(C(F)(F)F)cc1)N1CCOCC1 (centres unmarked)	18.2%
CCN(CC)c1ccc(NS(=O)(=O)c2ccc(OC)cc2)cc1	3.24%
O=[N+]([O-])c1ccc(SCCc2ccccn2)cc1	0.0591%
O=[N+]([O-])c1ccc(N2CCN(S(=O)(=O)c3ccccc3)CC2)cc1NCc1ccco1	12.4%
COc1ccc(CN2CCc3ccccc3C2)c(OC)c1OC	-3.44%
CCOc1ccccc1Nc1nc(-c2sc(NC(=O)c3cccc(Cl)c3)nc2C)cs1	13.4%
CC1(C)CC(=O)C2=C(C1)Nc1ccccc1NC2c1ccc(F)c(F)c1 (centres unmarked)	3.54%
COc1ccc(OC)c(CCNC(=O)C2CCN(c3nnc(-n4cccc4)s3)CC2)c1	2.09%
COC(=O)N/N=C/c1cc(N=Nc2ccccc2)ccc1O	4.67%
Cc1c(NS(C)(=O)=O)c(=O)n(-c2ccccc2)n1C	-4.72%
CC1=C(C(=O)OCc2ccccc2)C(c2cccc(Br)c2)NC(=O)N1 (centres unmarked)	15.5%
C[n+]1ccccc1/C=C/c1ccc([N+](=O)[O-])cc1.[I-]	4.84%
CSc1ncc(C(=O)Nc2ccc(Br)cn2)c(C)n1	2.32%
CCOc1ccc(S(=O)(=O)NCCN2CCOCC2)c2ccccc12	2.21%
COc1ccc(C(=O)N2CCN(c3ccc([N+](=O)[O-])c(NCCc4ccc(OC)c(OC)c4)c3)CC2)cc1	10.8%

SMILES	hERG current change (%, negative = inhibition) at 1uM
CC(=O)Nc1cccc(C(=O)OCN2C(=O)c3ccccc3C2=O)c1	4.95%
COc1ccc(CNC(=O)CN2C(=O)CSc3ccc(S(=O)(=O)N4CCOCC4)cc32)cc1	2.8%
CC(C)c1ccc(CNc2cc(N3CCCC3)ccc2[N+](=O)[O-])cc1	16.4%
CS(=O)(=O)N1CCN(c2ccc([N+](=O)[O-])cc2F)CC1	4.72%
CCO[C@H]1OC(C(=O)NCc2nc3ccccc3[nH]2)=C[C@@H](c2ccccc2)[C@@H]1CCCO	2.09%
CCOc1ccc(Cn2c(=O)sc3ccccc32)cc1OC	3.79%
O=C1c2ccccc2C(=O)c2c(Nc3ccc(CCO)cc3)ccc(O)c21	11%
O=C(c1ccoc1)N1CCCC(N2CCN(c3cccc(Cl)c3)CC2)C1 (centres unmarked)	-11.9%
CCn1cc(C(=O)NC2CCCCCC2)c2cc(OC)c(OC)cc2c1=O	7.84%
CCn1c(C)nnc1SCC(=O)Nc1ccc(N2CCOCC2)cc1	-4.2%
O=C(c1ccco1)N1CCCC(N2CCN(c3ccccc3F)CC2)C1 (centres unmarked)	3.94%
CCOc1ccc2[nH]c3c(=O)n(CCC4=CCCCC4)cnc3c2c1	11%
N#CC1=C(N)Oc2n[nH]c(-c3cccs3)c2C1c1cccs1 (centres unmarked)	11.1%
CN1CCCN(C(=O)CNC(=O)Cc2ccccc2)CC1	7.6%
Cc1cc(C=C2C(=O)c3ccccc3C2=O)c(C)n1-c1ccccc1	11.3%
COc1ccc(NC(=O)c2ccc(CNc3c(N4CCCC4)c(=O)c3=O)cc2)cc1Cl	0.701%
N#Cc1c(N)nc2c(c1-c1ccncc1)CCCC2	3.94%
Cc1sc2ncn(CC(=O)NCCCC(=O)N3CCCCC3)c(=O)c2c1C	11.5%
COc1ccc(OC)c(NC(=O)c2ccc(NS(=O)(=O)c3c(C)noc3C)cc2)c1	5.79%
CC(=O)N/C(=C/c1ccc(OS(=O)(=O)c2ccc(C)cc2)cc1)C(=O)Nc1ccc(C(=O)O)cc1	8.8%
